{"source": "the supplement of paper PMC8728848", "binders": {"B1": {"name": "GS14009A-pdi-495-27-495 (Parabacteroides distasonis) (protein)", "chain": "FEEVNTDPDSPTDVPTTNLLAYSLYYTSYRLYDRWFAMDEPMTFCGYASKMTYIDESRYNFRTGVQDTNWEYLYRILNNLKDIEKRATFNETPNMLNVSKVMQVHLMQVATDRWRDVPYTDAAKMTDGILQPKYDKQEDIYPGLLATLKEAADGFADGGSDDLGEGDLLFGGDIEKWQRYCNSMRLRLAMRISEVSPALAKETVEEVMGNPTKYPIMESNDDNAFFWWIGTDPNYYEPMADGYRTRKTEYCAADVIVDHMNTREDPRRSSYFQPTKESVEAGEPKYVGYTIGAKANAVASKYSIWGARFFTDLAGFSPYMRVAEPWFCVAEASMLGWNTGISAEDAYNKAVTYSMEENSVSAEDIADYLANAGKFTNDKKQIYYEEWVAMFKQGMEGWSLYRRTGVPDNLYPAPGRPANYSNHNVPPFRSPYPDKERNLNNANCAPFDAEVVDNLWGKQMWWDTRTGVH"}}, "experiment_in_all_cases": "glycan array binding signal (z-score within array); higher = stronger binding", "conditions_in_all_cases": "glycan notation: IUPAC condensed, linker removed", "key": {"[1]": {"target": "Fuc(a1-2)Gal(b1-4)GlcNAc(b1-3)Gal(b1-4)GlcNAc(b1-3)Gal(b1-4)GlcNAc", "method_in_brief": "(§1)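 Negative Z-scores can be read as non-binding. The Z-score is calculated within each array and then averaged across arrays of one protein sequence at different concentrations or buffers and across linkers. Arrays, 3228 in all, were curated from the Consortium for Functional Glycomics database and kept only where the protein sequence was available.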"}, "[2]": {"target": "Fuc(a1-2)Gal(b1-4)GlcNAc(b1-3)GalNAc", "method_in_brief": "as §1"}, "[3]": {"target": "Fuc(a1-2)Gal(b1-4)GlcNAc(b1-3)[Fuc(a1-2)Gal(b1-4)GlcNAc(b1-6)]GalNAc", "method_in_brief": "as §1"}, "[4]": {"target": "Fuc(a1-2)Gal(b1-4)GlcNAc(b1-3)[Fuc(a1-3)[Gal(b1-4)]GlcNAc(b1-6)]Gal(b1-4)Glc", "method_in_brief": "as §1"}, "[5]": {"target": "Fuc(a1-2)Gal(b1-4)GlcNAc(b1-6)GalNAc", "method_in_brief": "as §1"}, "[6]": {"target": "Fuc(a1-2)Gal(b1-4)GlcNAc6S", "method_in_brief": "as §1"}, "[7]": {"target": "Fuc(a1-2)Gal(b1-4)[Fuc(a1-3)]GlcNAc", "method_in_brief": "as §1"}, "[8]": {"target": "Fuc(a1-2)Gal(b1-4)[Fuc(a1-3)]GlcNAc(b1-2)Man(a1-3)[Fuc(a1-2)Gal(b1-4)[Fuc(a1-3)]GlcNAc(b1-2)Man(a1-6)]Man(b1-4)GlcNAc(b1-4)[Fuc(a1-6)]GlcNAc", "method_in_brief": "as §1"}, "[9]": {"target": "Fuc(a1-2)Gal(b1-4)[Fuc(a1-3)]GlcNAc(b1-2)[Fuc(a1-2)Gal(b1-4)[Fuc(a1-3)]GlcNAc(b1-4)]Man(a1-3)[Fuc(a1-2)Gal(b1-4)[Fuc(a1-3)]GlcNAc(b1-2)Man(a1-6)]Man(b1-4)GlcNAc(b1-4)GlcNAc", "method_in_brief": "as §1"}, "[10]": {"target": "Fuc(a1-2)Gal(b1-4)[Fuc(a1-3)]GlcNAc(b1-3)Gal(b1-4)[Fuc(a1-3)]GlcNAc", "method_in_brief": "as §1"}, "[11]": {"target": "Fuc(a1-2)Gal(b1-4)[Fuc(a1-3)]GlcNAc(b1-3)Gal(b1-4)[Fuc(a1-3)]GlcNAc(b1-3)Gal(b1-4)[Fuc(a1-3)]GlcNAc", "method_in_brief": "as §1"}, "[12]": {"target": "Fuc(a1-2)Gal(b1-4)[Fuc(a1-3)]GlcNAc(b1-3)GalNAc", "method_in_brief": "as §1"}, "[13]": {"target": "Fuc(a1-2)Gal(b1-4)[Fuc(a1-3)]GlcNAc(b1-3)[Neu5Ac(a2-6)Gal(b1-4)GlcNAc(b1-6)]Gal(b1-4)Glc", "method_in_brief": "as §1"}, "[14]": {"target": "Fuc(a1-2)Gal3S(b1-4)GlcNAc", "method_in_brief": "as §1"}, "[15]": {"target": "Fuc(a1-2)Gal6S(b1-3)GlcNAc", "method_in_brief": "as §1"}, "[16]": {"target": "Fuc(a1-2)Gal6S(b1-3)GlcNAc6S", "method_in_brief": "as §1"}, "Fuc(a1-2)Gal6S(b1-4)Glc": {"target": "Fuc(a1-2)Gal6S(b1-4)Glc", "method_in_brief": "as §1"}, "[17]": {"target": "Fuc(a1-2)Gal6S(b1-4)Glc6S", "method_in_brief": "as §1"}, "Fuc(a1-2)[Gal(a1-3)]Gal": {"target": "Fuc(a1-2)[Gal(a1-3)]Gal", "method_in_brief": "as §1"}, "[18]": {"target": "Fuc(a1-2)[Gal(a1-3)]Gal(b1-3)GalNAc", "method_in_brief": "as §1"}, "[19]": {"target": "Fuc(a1-2)[Gal(a1-3)]Gal(b1-3)GalNAc(b1-3)Gal(a1-4)Gal(b1-4)Glc", "method_in_brief": "as §1"}, "[20]": {"target": "Fuc(a1-2)[Gal(a1-3)]Gal(b1-3)GlcNAc", "method_in_brief": "as §1"}, "[21]": {"target": "Fuc(a1-2)[Gal(a1-3)]Gal(b1-3)GlcNAc(b1-2)Man(a1-3)[Fuc(a1-2)[Gal(a1-3)]Gal(b1-3)GlcNAc(b1-2)Man(a1-6)]Man(b1-4)GlcNAc(b1-4)GlcNAc", "method_in_brief": "as §1"}, "[22]": {"target": "Fuc(a1-2)[Gal(a1-3)]Gal(b1-3)GlcNAc(b1-2)Man(a1-3)[Fuc(a1-2)[Gal(a1-3)]Gal(b1-3)GlcNAc(b1-2)Man(a1-6)]Man(b1-4)GlcNAc(b1-4)[Fuc(a1-6)]GlcNAc", "method_in_brief": "as §1"}, "[23]": {"target": "Fuc(a1-2)[Gal(a1-3)]Gal(b1-3)GlcNAc(b1-3)GalNAc", "method_in_brief": "as §1"}, "[24]": {"target": "Fuc(a1-2)[Gal(a1-3)]Gal(b1-3)GlcNAc(b1-6)GalNAc", "method_in_brief": "as §1"}, "[25]": {"target": "Fuc(a1-2)[Gal(a1-3)]Gal(b1-4)Glc", "method_in_brief": "as §1"}, "[26]": {"target": "Fuc(a1-2)[Gal(a1-3)]Gal(b1-4)GlcNAc", "method_in_brief": "as §1"}, "[27]": {"target": "Fuc(a1-2)[Gal(a1-3)]Gal(b1-4)GlcNAc(b1-2)Man", "method_in_brief": "as §1"}, "[28]": {"target": "Fuc(a1-2)[Gal(a1-3)]Gal(b1-4)GlcNAc(b1-2)Man(a1-3)[Fuc(a1-2)[Gal(a1-3)]Gal(b1-4)GlcNAc(b1-2)Man(a1-6)]Man(b1-4)GlcNAc(b1-4)GlcNAc", "method_in_brief": "as §1"}}, "note": "Some of the results follow.", "data": [{"binder": "B1", "values": [{"measurement": "glycan array binding signal (z-score)", "setting": "[1]", "value": 0.139}, {"measurement": "glycan array binding signal (z-score)", "setting": "[2]", "value": -0.559}, {"measurement": "glycan array binding signal (z-score)", "setting": "[3]", "value": -0.432}, {"measurement": "glycan array binding signal (z-score)", "setting": "[4]", "value": 0.001}, {"measurement": "glycan array binding signal (z-score)", "setting": "[5]", "value": -0.511}, {"measurement": "glycan array binding signal (z-score)", "setting": "[6]", "value": -0.505}, {"measurement": "glycan array binding signal (z-score)", "setting": "[7]", "value": -0.617}, {"measurement": "glycan array binding signal (z-score)", "setting": "[8]", "value": 0.748}, {"measurement": "glycan array binding signal (z-score)", "setting": "[9]", "value": 0.154}, {"measurement": "glycan array binding signal (z-score)", "setting": "[10]", "value": 0.196}, {"measurement": "glycan array binding signal (z-score)", "setting": "[11]", "value": -0.248}, {"measurement": "glycan array binding signal (z-score)", "setting": "[12]", "value": 0.954}, {"measurement": "glycan array binding signal (z-score)", "setting": "[13]", "value": -0.607}, {"measurement": "glycan array binding signal (z-score)", "setting": "[14]", "value": -0.498}, {"measurement": "glycan array binding signal (z-score)", "setting": "[15]", "value": -0.571}, {"measurement": "glycan array binding signal (z-score)", "setting": "[16]", "value": 0.562}, {"measurement": "glycan array binding signal (z-score)", "setting": "Fuc(a1-2)Gal6S(b1-4)Glc", "value": -0.521}, {"measurement": "glycan array binding signal (z-score)", "setting": "[17]", "value": -0.522}, {"measurement": "glycan array binding signal (z-score)", "setting": "Fuc(a1-2)[Gal(a1-3)]Gal", "value": -0.174}, {"measurement": "glycan array binding signal (z-score)", "setting": "[18]", "value": 0.023}, {"measurement": "glycan array binding signal (z-score)", "setting": "[19]", "value": 0.04}, {"measurement": "glycan array binding signal (z-score)", "setting": "[20]", "value": -0.616}, {"measurement": "glycan array binding signal (z-score)", "setting": "[21]", "value": -0.225}, {"measurement": "glycan array binding signal (z-score)", "setting": "[22]", "value": 0.757}, {"measurement": "glycan array binding signal (z-score)", "setting": "[23]", "value": -0.579}, {"measurement": "glycan array binding signal (z-score)", "setting": "[24]", "value": -0.13}, {"measurement": "glycan array binding signal (z-score)", "setting": "[25]", "value": -0.001}, {"measurement": "glycan array binding signal (z-score)", "setting": "[26]", "value": -0.34}, {"measurement": "glycan array binding signal (z-score)", "setting": "[27]", "value": -0.091}, {"measurement": "glycan array binding signal (z-score)", "setting": "[28]", "value": 1.89}]}]}
